Test results as given in a collection of fitness landscapes (doi:10.1126/science.1257360).
The other results are listed elsewhere or left out.

B1: PhoQ; a variant is named by its letters at X, in order, P23837 (parent)
chain: MKKLLRLFFPLSLRVRFLLATAAVVLVLSLAYGMVALIGYSVSFDKTTFRLLRGESNLFYTLAKWENNKLHVELPENIDKQSPTMTLIYDENGQLLWAQRDVPWLMKMIQPDWLKSNGFHEIEADVNDTSLLLSGDHSIQQQLQEVREDDDDAEMTHSVAVNVYPATSRMPKLTIVVVDTIPVELKSSYMVWSWFIYVLSANLLLVIPLLWVAAWWSLRPIEALAKEVRELEEHNRELLNPATTRELTSLVRNLNRLLKSERERYDKYRTTLTDLTHSLKTPLXXLQXXLRSLRSEKMSVSDAEPVMLEQISRISQQIGYYLHRASMRGGTLLSRELHPVAPLLDNLTSALNKVYQRKGVNISLDISPEISFVGEQNDFVEVMGNVLDNACKYCLEFVEISARQTDEHLYIVVEDDGPGIPLSKREVIFDRGQRVDTLRPGQGVGLAVAREITEQYEGKIVAGESMLGGARMEVIFGRQHSAPKDE

Variants of: B1
Experiment: enrichment ratio after two sorts for PhoP signalling (ratio (wild type AVST 3.29)); higher = more functional
Details: with PhoP (E. coli)

Row | Variant | enrichment ratio
1 | NMQY | ≤ 0.25
2 | KTNW | ≤ 0.25
3 | SATQ | 10.3
4 | YTWV | ≤ 0.25
5 | KLQN | ≤ 0.25
6 | HHCM | ≤ 0.25
7 | FAIS | ≤ 0.25
8 | RCRC | ≤ 0.25
9 | DHSK | ≤ 0.25
10 | GWRF | ≤ 0.25
11 | VPLT | ≤ 0.25
12 | NREP | ≤ 0.25
13 | VWLM | ≤ 0.25
14 | FTNS | ≤ 0.25
15 | YFTQ | ≤ 0.25
16 | KRAK | ≤ 0.25
17 | ILTC | 2.74
18 | SEGC | 5.53
19 | PAPA | ≤ 0.25
20 | FHPL | ≤ 0.25
21 | RVNM | ≤ 0.25
22 | SKTD | ≤ 0.25
23 | NLAD | ≤ 0.25
24 | KEQP | ≤ 0.25
25 | NKLE | ≤ 0.25
26 | IVPF | ≤ 0.25

Row | Variant | enrichment ratio
27 | ECDG | ≤ 0.25
28 | KSWP | ≤ 0.25
29 | FGWC | ≤ 0.25
30 | CFDS | ≤ 0.25
31 | RFTW | ≤ 0.25
32 | FPMT | ≤ 0.25
33 | SCRK | ≤ 0.25
34 | FQKF | ≤ 0.25
35 | WSAM | ≤ 0.25
36 | MYVR | ≤ 0.25
37 | HDTW | ≤ 0.25
38 | NNNF | ≤ 0.25
39 | TPWQ | ≤ 0.25
40 | HWCD | 2.96
41 | GIIT | 0.448
42 | EPDL | ≤ 0.25
43 | HDVV | ≤ 0.25
44 | LLDL | ≤ 0.25
45 | IKFF | ≤ 0.25
46 | QTDF | 4.85
47 | PWSA | ≤ 0.25
48 | VRIM | ≤ 0.25
49 | MTLP | ≤ 0.25
50 | KGCK | ≤ 0.25
51 | MMAD | ≤ 0.25
52 | GNCW | ≤ 0.25

Row | Variant | enrichment ratio
53 | RRSY | ≤ 0.25
54 | DQVS | ≤ 0.25
55 | DSNA | ≤ 0.25
56 | GLLK | ≤ 0.25
57 | QHQP | ≤ 0.25
58 | RSNQ | ≤ 0.25
59 | IIPG | ≤ 0.25
60 | RQSF | ≤ 0.25
61 | PFLA | ≤ 0.25
62 | SATR | ≤ 0.25
63 | SNKD | ≤ 0.25
64 | SGII | 3.87
65 | DSCR | ≤ 0.25
66 | GFID | ≤ 0.25
67 | QCCG | ≤ 0.25
68 | QRWE | ≤ 0.25
69 | LDCC | ≤ 0.25
70 | KDCE | ≤ 0.25
71 | FSPM | ≤ 0.25
72 | TRTA | ≤ 0.25
73 | IPSL | ≤ 0.25
74 | RQYQ | ≤ 0.25
75 | KMRS | ≤ 0.25
76 | PQAQ | ≤ 0.25
77 | MNSN | ≤ 0.25
78 | RKMW | ≤ 0.25

Row | Variant | enrichment ratio
79 | QSAM | 14.5
80 | AFST | ≤ 0.25
81 | VWVD | ≤ 0.25
82 | MSWW | ≤ 0.25
83 | HLQQ | ≤ 0.25
84 | HRVV | ≤ 0.25
85 | PEWS | ≤ 0.25
86 | DYDS | ≤ 0.25
87 | LIKS | ≤ 0.25
88 | PPFA | ≤ 0.25
89 | HWEV | ≤ 0.25
90 | IFDR | ≤ 0.25
91 | FKWF | ≤ 0.25
92 | NFFV | ≤ 0.25
93 | AEAS | 21.3
94 | DYEH | ≤ 0.25
95 | YYVH | ≤ 0.25
96 | GMFG | ≤ 0.25
97 | KKSM | ≤ 0.25
98 | SWTM | ≤ 0.25
99 | VEDH | ≤ 0.25
100 | HFIV | ≤ 0.25
101 | MHWD | ≤ 0.25
102 | DYHA | ≤ 0.25
103 | DAPY | ≤ 0.25
104 | GTPF | ≤ 0.25

Row | Variant | enrichment ratio
105 | ATEG | ≤ 0.25
106 | IEGS | ≤ 0.25
107 | GYTA | ≤ 0.25
108 | MTPR | ≤ 0.25
109 | NVGP | ≤ 0.25
110 | THVN | ≤ 0.25
111 | FNKL | ≤ 0.25
112 | SINQ | 0.587
113 | SPYR | ≤ 0.25
114 | WFFA | ≤ 0.25
115 | WRRA | ≤ 0.25
116 | QSMD | ≤ 0.25
117 | KGCP | ≤ 0.25
118 | EPQD | ≤ 0.25
119 | QMPN | ≤ 0.25
120 | TCVC | ≤ 0.25
121 | SHTY | 0.976
122 | NSRE | ≤ 0.25
123 | FKIC | ≤ 0.25
124 | MGNP | ≤ 0.25
125 | RWAD | ≤ 0.25
126 | IYYS | ≤ 0.25
127 | FYTI | ≤ 0.25
128 | TMHV | 0.946
129 | YRDS | ≤ 0.25
130 | RDIR | ≤ 0.25

Row | Variant | enrichment ratio
131 | MHQE | ≤ 0.25
132 | REFP | ≤ 0.25
133 | IDIS | ≤ 0.25
134 | EGSP | ≤ 0.25
135 | VWNA | ≤ 0.25
136 | SFDK | ≤ 0.25
137 | NKAQ | ≤ 0.25
138 | PDAW | ≤ 0.25
139 | AVVV | 2.93
140 | YAGK | ≤ 0.25
141 | HEDC | ≤ 0.25
142 | GSHN | ≤ 0.25
143 | NVSN | ≤ 0.25
144 | FLGT | ≤ 0.25
145 | LLPH | ≤ 0.25
146 | FWWW | ≤ 0.25
147 | IVSS | ≤ 0.25
148 | LYEK | ≤ 0.25
149 | GIQS | ≤ 0.25
150 | SCVT | 1.01
151 | RDGQ | ≤ 0.25
152 | PERD | ≤ 0.25
153 | EGWW | ≤ 0.25
